Test results reported in PMC7819943, “Rice protein-binding microarrays: a tool to detect cis-acting elements near promoter regions in rice”.
Some of the results follow.

These sequences were tested against T1, OsWOX13 (Oryza sativa, UniProt Q5QMM3 1-267) (assay: protein-binding microarray (RPBM); PBS, 2% BSA, 51.3 ng/ul salmon testes DNA, 50 uM zinc acetate, 200 nM TF, 25 C, 1 h; high values mean tight binding). Details: protein: recombinant; tags: N-terminal polyhistidine and DsRed monomer fusion (pET32a); label: CyDye5-dUTP incorporated in the synthesized complementary strand; 3' TTTTT single-stranded linker to array surface; dsDNA, one strand shown.
T1 sequence: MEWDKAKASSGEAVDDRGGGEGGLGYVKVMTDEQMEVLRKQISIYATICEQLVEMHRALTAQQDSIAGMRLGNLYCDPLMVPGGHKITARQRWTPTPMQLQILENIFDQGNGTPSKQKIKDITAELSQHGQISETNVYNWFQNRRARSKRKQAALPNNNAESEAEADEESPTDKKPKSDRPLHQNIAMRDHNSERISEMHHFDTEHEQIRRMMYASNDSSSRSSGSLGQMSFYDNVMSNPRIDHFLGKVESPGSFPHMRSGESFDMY
In short: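 An Axon 4000B scanner gave the binding signal as per-feature fluorescence intensity in arbitrary units. This followed washing of a custom Agilent array that had been incubated for 1 h at 25 °C with 200 nM protein in PBS, 2% BSA, salmon testes DNA and 50 µM zinc acetate. The proteins were transcription factors fused at the N-terminus to polyhistidine and DsRed, expressed in E. coli BL21-CodonPlus and purified on Ni–NTA.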

| Sequence | binding signal |
| --- | --- |
| ATCCATCATGTAAAATTGATGTTACTAGATTTATCATTAACGGAGTCACCTAGTGCAG | 5970 fluorescence intensity (a.u.) |
| GTGCATTTAAATCTCAATCATCTGCGTGATTTGATTGAGCCGGAGTCACCTAGTGCAG | 45400 fluorescence intensity (a.u.) |
| GATGTAATTTGATTATCAAAACTAAAACAATTGGATACAACGGAGTCACCTAGTGCAG | 26300 fluorescence intensity (a.u.) |
| TTCCTCCCTGTCATTATCCGCCCTACTTCCCATCAAAGATCGGAGTCACCTAGTGCAG | 3750 fluorescence intensity (a.u.) |
| AACCTTTCATTATTTATGTCCATGTACTCCCTGTTGAATTCGGAGTCACCTAGTGCAG | 3370 fluorescence intensity (a.u.) |
| CTCATCATCAATCATCATCTCTGCAGCGTGACAGTAACATCGGAGTCACCTAGTGCAG | 20100 fluorescence intensity (a.u.) |
| GTATAATTAAATGGGGAAGTGTTGTGATTGGAGTAGAAGTCGGAGTCACCTAGTGCAG | 27200 fluorescence intensity (a.u.) |
| AGTCATTGACCACCCAATTGAATCAAATTGTATGGTTGGTCGGAGTCACCTAGTGCAG | 3230 fluorescence intensity (a.u.) |
| GTTAATACTCAATTAATCATACGCTAATGGTTCACCTCATCGGAGTCACCTAGTGCAG | 15900 fluorescence intensity (a.u.) |
| CCAACTAATCATGCTTAGTTAGCAATTAAGCCATAAACAACGGAGTCACCTAGTGCAG | 9180 fluorescence intensity (a.u.) |
| AGTGTAATTAACTTTCTTCTTCTCTCCAACTGCTTCAGCTCGGAGTCACCTAGTGCAG | 11200 fluorescence intensity (a.u.) |
| TTAACAAAGTTAGTGATTAATGTTTCATCGACCGGTCTGGCGGAGTCACCTAGTGCAG | 5290 fluorescence intensity (a.u.) |
| GCCATTGATTGCGCCGGCGATGAATGCGGGCACGATTCGACGGAGTCACCTAGTGCAG | 30900 fluorescence intensity (a.u.) |
| TTCTAATTTTAAAATCAGTAACACCAAACAAAATGCGCCTCGGAGTCACCTAGTGCAG | 21000 fluorescence intensity (a.u.) |
| CTAACTAGCAAATTATGAGAATCTTAAGCTCCTCATTTCACGGAGTCACCTAGTGCAG | 5910 fluorescence intensity (a.u.) |
| GTAGATTCAACGAAACTAAATTGGCGTTGTATATGTTACTCGGAGTCACCTAGTGCAG | 3710 fluorescence intensity (a.u.) |
| AAATTAATTGTTATGATAAATATTATTATATTTATCTACCCGGAGTCACCTAGTGCAG | 46000 fluorescence intensity (a.u.) |
| TACACCCCACTTACATATGTAATTAGTATATGTAATTTTCCGGAGTCACCTAGTGCAG | 4610 fluorescence intensity (a.u.) |
| ATTAATTTATTACGCCGTCTACTTCTATTTTCGTCTACACCGGAGTCACCTAGTGCAG | 35300 fluorescence intensity (a.u.) |
| GATCAAATAGAATAAACAAAATGTCAAAATTCATGAGGACCGGAGTCACCTAGTGCAG | 3340 fluorescence intensity (a.u.) |
| CACAGTTGATGAGCAAATAGAAAGAACAGGGGAGAATGGTCGGAGTCACCTAGTGCAG | 11200 fluorescence intensity (a.u.) |

| Sequence | binding signal |
| --- | --- |
| ATACAAATCAATATTTCTTCGTCGAGCGTGTCAGGAAGGACGGAGTCACCTAGTGCAG | 3210 fluorescence intensity (a.u.) |
| TAAATTATCTTCTTTTAATCTTGTACTCGAGTTAAGGATTCGGAGTCACCTAGTGCAG | 4080 fluorescence intensity (a.u.) |
| TCGCCTAATTGCGCCTGATTGGGCCACTAACGGGCCCACACGGAGTCACCTAGTGCAG | 24700 fluorescence intensity (a.u.) |
| TCTTGCCAACTGATTGATCGATCCTGGAAGCTTGCTGCTGCGGAGTCACCTAGTGCAG | 37900 fluorescence intensity (a.u.) |
| GTTATATAACCAATTTTACCAATTAGTTACTCCTAGTACGCGGAGTCACCTAGTGCAG | 7810 fluorescence intensity (a.u.) |
| AATTGAAATAATTGGAAATTTTCATATTTATATATTAAACCGGAGTCACCTAGTGCAG | 5800 fluorescence intensity (a.u.) |
| GCATAAACTTTCAATTTTCCCGTCACATCGTTCCAATTTCCGGAGTCACCTAGTGCAG | 4970 fluorescence intensity (a.u.) |
| ACTGAAATCAATTAGCCTCTGCGAGTGAACTAAATCATGCCGGAGTCACCTAGTGCAG | 12600 fluorescence intensity (a.u.) |
| TCCGATTAATGTGGAAATTTCTAGCCTCCACAGCGAACGTCGGAGTCACCTAGTGCAG | 8650 fluorescence intensity (a.u.) |
| CAGTGTGATTGACTGTTGAGGCGGAGTCGGAGCTGCTTGTCGGAGTCACCTAGTGCAG | 50900 fluorescence intensity (a.u.) |
| TGTTAATCTGCTGTGATGACTTGTCATCTTCCACTCTGTCCGGAGTCACCTAGTGCAG | 4940 fluorescence intensity (a.u.) |
| TTGGCTTGATTGTCACATCGGATATACAGACACACATTTACGGAGTCACCTAGTGCAG | 12400 fluorescence intensity (a.u.) |
| TGTTGAAATTGGCACGCTTAGACATAATGGTTGCTTGCTTCGGAGTCACCTAGTGCAG | 8710 fluorescence intensity (a.u.) |
| ATTTGATAATTTGGTTTAGGATTTTGCATGGGGCATGTGTCGGAGTCACCTAGTGCAG | 17800 fluorescence intensity (a.u.) |
| ACATTAATGATTAGAGACTATATTGTCTCTAACTGTTGTACGGAGTCACCTAGTGCAG | 39900 fluorescence intensity (a.u.) |
| TTGATTTCTGTTATGTATGACGTGGCAGATGACTTAGTGTCGGAGTCACCTAGTGCAG | 5730 fluorescence intensity (a.u.) |
| TCTAATTTCTCCTAGTCAGAACCAAATTTTCTCCTCAGAACGGAGTCACCTAGTGCAG | 3270 fluorescence intensity (a.u.) |
| TTGAGGTGTTTATGTAATCAATTATGGACGTTGAGAAGCACGGAGTCACCTAGTGCAG | 4350 fluorescence intensity (a.u.) |
| ACAAATTCAAGTAATTGATCGATTGATGTTACTATTTCGTCGGAGTCACCTAGTGCAG | 33900 fluorescence intensity (a.u.) |
| GTATTAATCACATTTCATTTCAACTTTTGATTCTGATATGCGGAGTCACCTAGTGCAG | 5200 fluorescence intensity (a.u.) |
| CTGATGATTGCACCCCACTTGAATCAAGGGTGTGACAAAACGGAGTCACCTAGTGCAG | 15300 fluorescence intensity (a.u.) |
